Results from patent publication US9724426B2, “Agents, uses and methods” (AFFINICON APS, priority 2009, dated 2017).
Each block holds one molecule with its values, some of them ahead of it.

Key:
[1] = target: T1, CD163 on CD14 positive monocytes (Homo sapiens, UniProt Q86VB7); assay: Flow cytometry, binding of KN2/NRY to human monocytes; type: cell-based
T1 construct: endogenous in cells; host or cells: human peripheral blood monocytes, monocyte-derived macrophages, blood dendritic cells
Experimental: The cell suspensions were washed in PBS pH 7.4 (0.1% NaN3) and the cell density adjusted to 3-5×10^6/ml. The cells were incubated at 0.3-0.5×10^6/ml with primary mAb (0.1-0.5 μg) in 100 μl PBS pH 7.4 (0.1% NaN3 and 2% FBS) for one hour at 4° C. Subsequently, the cells were washed in PBS (0.1% NaN3) and incubated with secondary Ab (anti-mouse IgG-FITC or anti-human IgG-FITC (both AbD-Serotec Dusseldorf, Germany)) for 30 min at 4° C. The stained cells were washed twice in PBS pH 7.4 (0.1% NaN3 and 2 FBS) by centrifugation at 1200 rpm for 5 min, 4° C. before analysis on a FACSCalibur (BD Biosciences, New Jersey, USA). The data were further analyzed using the FlowJo7 software package (Tri Star, Origon, USA).

[2] = target: recombinant CD163 immobilized on a Biacore chip (Homo sapiens, UniProt Q86VB7); assay: Surface plasmon resonance (Biacore) analysis of mAb binding to immobilized CD163; conditions: 5 μg/ml
Experimental: SPR analysis of the binding of mAbs to CD163 was carried out on a Biacore 2000 instrument (Biacore, Uppsala, Sweden). The Biacore sensor chips (type CM5) were activated with a 1:1 mixture of 0.2 M N-ethyl-N′-(3-dimethylaminopropyl) carbodiimide and 0.05 M N-hydroxysuccimide in water. Purified recombinant CD163 were immobilized in 10 mM sodium acetate, pH 4.0, and the remaining binding sites were blocked with 1 M ethanolamine, pH 8.5. The SPR signal generated from immobilized recombinant CD163 proteins corresponded to 40-70 fmol of protein/mm^2. Sensorgrams were generated using mAb concentrations ranging from 5-100 nM. The flow cells were regenerated with 1.6 M glycine-HCl, pH 3. The running buffer used for the experiment was either CaHBS 10 mM Hepes, 150 mM NaCl, 3.0 mM CaCl2, 1.0 mM EGTA, and 0.005% Tween 20, pH 7.4. or 10 mM Hepes, 150 mM NaCl, 3.0 mM EDTA, and 0.005% Tween 20, pH 7.4, mAb samples were dissolved in the same buffer as the running buffer used. All binding data were analyzed using the Biamolecular Interaction Analysis evaluation program version 3.1.
SPR analysis of the binding of mAbs to CD163 was carried out on a Biacore 2000 instrument (Biacore, Uppsala, Sweden). […] All binding data were analyzed using the Biamolecular Interaction Analysis evaluation program version 3.1.

[3] = target: T2, human CD163 VKVQEE→LKIHEK and double mutant (Homo sapiens, UniProt Q86VB7, E71K/Q69H/R112D/V66L/V68I); assay: Western blotting of human CD163 LKIHEK containing mutants; type: binding
T2 construct: a pcDNA5-FRT-humanCD163 plasmid harboring the full length human CD163 cDNA; expressed in transfected cells; host or cells: HEK 293 cells (transient)
Experimental: Each cell pellet was added 1 ml lysis buffer (10 mM Tris pH 8, 140 mM NaCl, 15 mM MgSO4 1% Triton X-100) and incubated for 15 min at 4 °C with rotation. After centrifugation for 30 min at 6000 rpm the supernatants were sterile filtered.
90 μl of each of the supernatants were added 30 μl of 4×LDS sample buffer. 3×20 μl samples of each supernatant and 8 μl SeeBlue plus2 prestained marker were loaded on NuPage 4-12% Bis-Tris-Gels (Invitrogen, Taastrup, Denmark) and the SDS-PAGEs were run with MOPS running buffer according to instructions of the manufacturer (200 V constant for 50 min). Blotting to PVDF membranes (Invitrogen, Taastrup, Denmark) was done on an iBLOT device according to instructions of the manufacturer. After blotting the membranes were washed briefly in 1×PBS 0.1% Tween and blocked for 30 min in 1×PBS 2% Tween at room temperature with shaking. After blocking the membranes were washed 3×5 min in 1×PBS 0.1% Tween and incubated 1 hour with: (1) 10 ml 1 μg/ml polyclonal rabbit anti-human CD163; (2) 10 ml 1 μg/ml Mac2-158; (3) 10 ml 1:500 KN2/NRY-HRP all diluted in 1×PBS 0.1% Tween. The membranes were washed with 3×5 min 1×PBS 0.1% Tween again and incubated with: (1) 10 ml Goat anti-rabbit-HRP 1:1000 (AbD Serotec, Oxford, UK); or (2) 10 ml Goat anti-mouse-HRP 1:1000 (Dako, Glostrup, Denmark) for 1 hour. […]

T2 sequence (Q86VB7 42-1156 V66L/V68I/Q69H/E71K/R112D): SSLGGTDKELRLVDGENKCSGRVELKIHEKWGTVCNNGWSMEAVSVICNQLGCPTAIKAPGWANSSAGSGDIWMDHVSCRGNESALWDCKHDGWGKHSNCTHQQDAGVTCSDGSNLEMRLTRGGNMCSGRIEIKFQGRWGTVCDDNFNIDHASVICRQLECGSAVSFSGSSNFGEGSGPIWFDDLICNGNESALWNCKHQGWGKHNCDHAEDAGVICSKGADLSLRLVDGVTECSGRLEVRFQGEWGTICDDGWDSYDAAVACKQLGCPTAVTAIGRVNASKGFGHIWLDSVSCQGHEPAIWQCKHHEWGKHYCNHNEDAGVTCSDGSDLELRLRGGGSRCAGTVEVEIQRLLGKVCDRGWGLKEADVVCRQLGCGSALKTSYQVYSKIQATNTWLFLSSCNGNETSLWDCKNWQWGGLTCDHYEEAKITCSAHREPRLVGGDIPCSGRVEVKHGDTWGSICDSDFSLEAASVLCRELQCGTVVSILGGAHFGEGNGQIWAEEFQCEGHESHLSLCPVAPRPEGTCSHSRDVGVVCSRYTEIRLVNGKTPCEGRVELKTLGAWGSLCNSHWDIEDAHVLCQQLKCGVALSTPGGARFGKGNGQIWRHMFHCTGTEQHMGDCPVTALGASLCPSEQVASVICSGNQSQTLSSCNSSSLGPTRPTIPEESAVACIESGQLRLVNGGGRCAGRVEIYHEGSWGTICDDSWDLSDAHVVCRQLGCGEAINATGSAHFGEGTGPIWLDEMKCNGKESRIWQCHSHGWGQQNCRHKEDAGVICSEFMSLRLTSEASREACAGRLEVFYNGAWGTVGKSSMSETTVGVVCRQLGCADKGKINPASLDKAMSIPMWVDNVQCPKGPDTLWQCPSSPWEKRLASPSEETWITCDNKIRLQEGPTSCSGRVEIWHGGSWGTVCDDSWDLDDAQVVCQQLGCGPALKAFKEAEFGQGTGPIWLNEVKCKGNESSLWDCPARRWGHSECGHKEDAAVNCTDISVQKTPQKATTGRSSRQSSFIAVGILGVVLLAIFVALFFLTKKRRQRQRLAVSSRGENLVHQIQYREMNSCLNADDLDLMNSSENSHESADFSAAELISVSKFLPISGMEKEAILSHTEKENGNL
Chain of recombinant CD163 immobilized on a Biacore chip (Q86VB7 42-1156): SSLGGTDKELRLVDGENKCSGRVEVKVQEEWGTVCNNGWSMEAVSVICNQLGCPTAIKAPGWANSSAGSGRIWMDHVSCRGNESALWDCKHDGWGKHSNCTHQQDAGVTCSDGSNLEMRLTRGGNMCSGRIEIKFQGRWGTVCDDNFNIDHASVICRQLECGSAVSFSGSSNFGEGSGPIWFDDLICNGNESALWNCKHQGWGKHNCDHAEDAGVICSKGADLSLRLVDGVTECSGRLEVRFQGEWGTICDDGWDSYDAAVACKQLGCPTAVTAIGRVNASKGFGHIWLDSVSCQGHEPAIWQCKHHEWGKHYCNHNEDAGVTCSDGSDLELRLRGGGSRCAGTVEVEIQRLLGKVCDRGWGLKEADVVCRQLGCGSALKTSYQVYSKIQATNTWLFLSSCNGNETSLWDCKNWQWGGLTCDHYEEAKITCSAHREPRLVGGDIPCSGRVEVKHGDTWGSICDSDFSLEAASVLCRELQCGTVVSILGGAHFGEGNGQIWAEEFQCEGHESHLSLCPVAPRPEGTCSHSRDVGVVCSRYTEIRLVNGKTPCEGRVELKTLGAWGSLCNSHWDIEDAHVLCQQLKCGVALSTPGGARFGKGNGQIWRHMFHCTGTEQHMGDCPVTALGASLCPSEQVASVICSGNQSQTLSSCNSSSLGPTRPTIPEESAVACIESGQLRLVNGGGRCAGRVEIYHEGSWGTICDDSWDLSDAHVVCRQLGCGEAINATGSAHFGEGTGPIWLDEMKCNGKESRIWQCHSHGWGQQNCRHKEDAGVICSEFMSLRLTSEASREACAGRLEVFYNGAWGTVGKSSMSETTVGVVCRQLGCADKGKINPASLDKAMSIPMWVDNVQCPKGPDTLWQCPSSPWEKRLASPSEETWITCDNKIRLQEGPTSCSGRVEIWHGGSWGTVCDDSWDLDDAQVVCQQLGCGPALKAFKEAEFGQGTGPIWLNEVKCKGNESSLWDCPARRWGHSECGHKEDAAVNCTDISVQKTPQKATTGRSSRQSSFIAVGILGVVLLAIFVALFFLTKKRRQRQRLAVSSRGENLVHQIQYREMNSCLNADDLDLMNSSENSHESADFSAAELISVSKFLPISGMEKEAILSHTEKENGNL
T1 sequence (Q86VB7 42-1156): as above

binding to CD14 positive monocytes [1]: specific binding
affinity for human CD163, KN2/NRY compared with Mac2-158 [2]: Virtually similar affinities
B1: KN2/NRY: humanized IgG4 CD163 antibody, heavy chain gamma KN2 and light chain kappa NRY (antibody)
heavy: QVQLQESGPGLVKPSETLSLTCTVSGYSITSDYAWNWIRQFPGNKLEWMGYITYSGSTYYNPSLKSRVTISVDTSKNQFSLKLSSVTAADTATYYCVSGTYYFDYWGQGTTLTVSSASTKGPSVFPLAPCSRSTSESTAALGCLVKDYFPEPVTVSWNSGALTSGVHTFPAVLQSSGLYSLSSVVTVPSSSLGTKTYTCNVDHKPSNTKVDKRV[human IgG4 Fc not given here]
light: DIVMTQSPSSLSASVGDRVTITCRASQSVSSDVAWFQQKPGKSPKPLIYYASNRYSGVPSRFSGSGSGTDFTLTISSLQAEDFAVYFCGQDYTSPRTFGGGTKLEIKRTVAAPSVFIFPPSDEQLKSGTASVVCLLNNFYPREAKVQWKVDNALQSGNSQESVTEQDSKDSTYSLSSTLTLSKADYEKHKVYACEVTHQGLSSPVTKSFNRGEC

binding in western blot [3]: only binding to the human CD163 wt
B2: KN2/NRY-HRP: HRP conjugated to KN2/NRY by periodate oxidation (conjugate)
heavy: B1 heavy
light: B1 light
